Measurements from the supplement of paper PMC3656093.
± gives the standard deviation of the averaged measurements. Whole data set: some 1,900 compounds, median “CD40L-induced NF-kB luciferase activity, plate-corrected, relative to DMSO (0) and IKK inhibitor VII (-100) controls” near 0.032, cut for the lowest 2% near -26. The list shows a part of the results.

tested on: BL2-NFkB-Luc; assay: CD40L-induced NF-kB luciferase activity, plate-corrected, relative to DMSO (0) and IKK inhibitor VII (-100) controls (% normalized activity); higher = more NF-kB reporter activity (less inhibition); conditions: 9.4 µM; stimulus: tCD40L 64 ng/ml; 4.5 h
Procedure: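 BL2 B cells with a stable NF-kB response-element luciferase reporter (BL2-NFkB-Luc), 384-well. Cells were pre-incubated with compound at 9.4 uM for 1 h at 37 C, then stimulated with 64 ng/ml trimerized CD40L for 4.5 h; luciferase was read with Steady-Glo. Signal was normalised per plate in Genedata (median DMSO neutral control = 0, median IKK inhibitor VII at 50 uM = -100) with Assay Median plate-pattern correction; duplicate plates.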

SMILES	CD40L-induced NF-kB luciferase activity
CN1C(=O)C(O)(CC(=O)/C=C/C=C/c2ccccc2)c2ccccc21 (configuration not stated)	1.38 ± 2.4
Cn1c(=O)c(C(=O)NCCO)c(O)c2ccccc21	11.6 ± 3.2
O=C(/C=C/c1ccc2c(c1)OCO2)c1ccccn1	44.5 ± 13
CC[n+]1ccc2cc(OC)c(OC)cc2c1Cc1ccc(OC)c(OC)c1	-0.423 ± 1.5
CC1(C)C(C=C(Cl)Cl)C1C(=O)N1CCN(Cc2ccccc2)CC1 (configuration not stated)	-1.62 ± 5.9
COc1cc(/C=C/C(=O)CC(=O)/C=C/c2ccc(O)c(OC)c2)ccc1O	8.92 ± 1.7
CCC(=O)c1ccc(OCc2ccc(C(=O)OC)cc2)cc1	47.3 ± 2.2
CC(C)CN1CCN(Cc2cccn2-c2ccccn2)CC1CCO (configuration not stated)	-10.8 ± 8.3
COc1ccc2nc([S+]([O-])Cc3ncc(C)c(OC)c3C)[nH]c2c1 (configuration not stated)	5.73 ± 8.1
CCOC(=O)N1c2ccccc2C=CC1OCC (configuration not stated)	1.55 ± 3.5
COc1cccc(OCC(O)CO)c1 (configuration not stated)	4.15 ± 11
COc1ccc2cc(C(=O)OC(C)C)sc(=O)c2c1OC	12.3 ± 3.2
CN(C)CCCN1c2ccccc2CCc2ccccc21	0.214 ± 1.2
NC(CO)C(=O)NNCc1ccc(O)c(O)c1O (configuration not stated)	0.201 ± 2.6
Cc1cnc(NC(=O)C2C(=O)c3ccccc3S(=O)(=O)N2C)s1 (configuration not stated)	-2.78 ± 4.5
CN1CCC(OC(c2ccccc2)c2ccccc2)CC1	0.501 ± 5.3
Cc1cc(O)c(C(=O)Cc2csc(C)n2)c(O)c1	45.9 ± 3.3
CC12CN3CC(C)(CN(C1)C3c1ccc(Cl)cc1Cl)C2=O (configuration not stated)	-2.73 ± 6.4
CCOc1ncnc2c1[nH]c1ccccc12	10.18 ± 0.021
Cc1cccc(Nc2ccccc2C(=O)O)c1C	-0.533 ± 0.74
CCC(C)n1ncn(-c2ccc(N3CCN(c4ccc(OCC5COC(Cn6cncn6)(c6ccc(Cl)cc6Cl)O5)cc4)CC3)cc2)c1=O (configuration not stated)	3.03 ± 0.81
COc1ccc(CN2CCCCC2C(=O)Nc2ccc(OC)c(OCC(C)C)c2)cc1OC (configuration not stated)	2.17 ± 3.2
CNCCCN1c2ccccc2CCc2ccccc21	6.37 ± 0.25
O=C1CC(c2ccc(F)cc2)Cc2nc(NCC3CCCO3)ncc21 (configuration not stated)	3.56 ± 5.9

SMILES	CD40L-induced NF-kB luciferase activity
COc1cc(OC)c(-c2nc3cnccc3n2C)cc1OC	-0.832 ± 2.7
CCCCCCCC(=O)OCC(=O)[C@@]1(O)CC[C@H]2[C@@H]3CCC4=CC(=O)CC[C@]4(C)[C@H]3[C@@H](O)C[C@@]21C	-24.2 ± 1.8
Cc1cc(=O)c2c(O)c(O)ccc2o1	-3.74 ± 1.1
CC1(C)S[C@@H]2[C@H](NC(=O)Cc3ccccc3)C(=O)N2[C@H]1C(=O)O	1.76 ± 1.8
CN(C)[C@@H]1C(=O)C(C(N)=O)C(=O)[C@@]2(O)C(=O)C3C(=O)c4c(O)ccc(Cl)c4[C@@H](O)[C@H]3C[C@@H]12 (some centres not stated)	-0.533 ± 1.3
CCCCC/C=C\C[C@H](O)/C=C/c1cccc(C[C@H](O)CCCCO)n1	1.35 ± 5.5
COc1ccccc1OCC(=O)O	5.79 ± 3.1
Cc1ccc2c(c1)C(O)(CC(=O)/C=C/C=C/c1ccccc1)C(=O)N2 (configuration not stated)	2.22 ± 2.3
Cn1c(=O)c2c(ncn2CCO)n(C)c1=O	-3.63 ± 5.5
COc1ccc(-n2cc(CNCc3cccnc3)c(-c3cccc(F)c3)n2)cc1	-4.77 ± 3.8
NC(N)=NN=Cc1ccc(OS(=O)(=O)c2ccccc2)cc1	-3.15 ± 6
Cn1c(=O)[nH]c(=O)c2c1nc(NCc1ccco1)n2CCCc1ccccc1	-14.4 ± 3.9
CC1(C)CC(=O)c2cnc(NC(=O)C3CCCC3)nc2C1	10.5 ± 8.1
COc1ccc2c(c1)[nH]c1c(=O)n(Cc3ccccn3)cnc12	-0.0285 ± 6.5
COc1cccc(CN2C(=O)N(C(C)C)C(N(O)C(=O)NC(C)C)C2(C)C)c1OC (configuration not stated)	0.34 ± 1.2
Cc1c(NC(=O)c2cccs2)cccc1[N+](=O)[O-]	3.34 ± 2.9
C#CCN(C)CCCOc1ccc(Cl)cc1Cl	18.6 ± 10
COc1ccc(C2C3=C(CC(C)(C)CC3=O)N(C)C3=C2C(=O)CC(C)(C)C3)cc1	-1.84 ± 3.1
CC1(C)C2CCC1(C(=O)O)c1nc3ccccc3nc12 (configuration not stated)	-6.56 ± 6.1
Cc1cnc(C(=O)NCCc2ccc(S(=O)(=O)NC(=O)NC3CCCCC3)cc2)cn1	-11.9 ± 14
CCc1cc2c(=O)c(-c3nc(C)cs3)c(CCCC(=O)O)oc2cc1O	4.01 ± 2.6
CC(OC(=O)c1cc(=O)[nH]c2ccccc12)C(=O)c1ccccc1 (configuration not stated)	2.72 ± 3.4
O=C(/C=C/c1ccccc1)/C=C/c1ccccc1	14 ± 3.4
Cc1ccccc1C(=O)Nc1ccccc1C(=O)NCC(C)C	-13.8 ± 7.1

SMILES	CD40L-induced NF-kB luciferase activity
CCCCNc1ccc(C(=O)OCCN(C)C)cc1	2.74 ± 6.3
COc1ccc2[nH]c(=O)c(CN(C(=O)c3ccco3)C(C)C)cc2c1	0.241 ± 0.71
COc1ccccc1C(CCN(Cc1ccccc1)C(C)=O)c1ccco1 (configuration not stated)	0.884 ± 3.6
O=C(CCSc1ccccc1)N1CCCC1	-1.91 ± 3.9
CCSC(SCC)[C@H](O)[C@@H](O)[C@H](O)[C@H](O)CO	1.44 ± 1.4
Cc1ccc(NCCC(=O)c2ccccc2)cc1Cl	0.848 ± 1.2
Cc1ccccc1C(OCCN(C)C)c1ccccc1 (configuration not stated)	1.17 ± 2.3
COc1cc(/C=C(\C#N)C(=O)N2CCc3ccccc32)ccc1O	-3.46 ± 17
NCCCC(N)(C(=O)O)C(F)F (configuration not stated)	-0.116 ± 2.1
CSc1ccc(C=NN2CCN(Cc3ccc(C)cc3C)CC2)cc1	-1.75 ± 1.9
COc1c2ccoc2nc2c(OC)cccc12	35 ± 3.3
CNc1c2c(nn1C)CCCC2	4.52 ± 6
CC(C)CN1CC(C(=O)O)CC1=O (configuration not stated)	0.831 ± 1.9
COc1ccc(-c2nnc(-c3cc4c(ccc5ccccc54)oc3=O)o2)cc1	-0.84 ± 2.2
COC(=O)C1=C(C)NC(C)=C(C(=O)OCCN(C)Cc2ccccc2)C1c1cccc([N+](=O)[O-])c1 (configuration not stated)	0.32 ± 4.7
CC(=O)SC1CC2=CC(=O)CCC2(C)C2CCC3(C)C(CCC34CCC(=O)O4)C12 (configuration not stated)	-3.8 ± 4
c1ccc(Nc2cccc3c(Nc4ccccc4)cccc23)cc1	6.91 ± 1.2
CC(C)NC(=O)c1ccc(C(C)C)cc1	-3.79 ± 5.4
CCc1oc2ccccc2c1C(=O)c1cc(Br)c(O)c(Br)c1	1.29 ± 0.75
COc1ccc(Cc2nc(-c3ccc(Br)cc3)no2)cc1	30.1 ± 0.52
CC(C)(C)NCC(O)c1cc(O)cc(O)c1 (configuration not stated)	-3.87 ± 3.1
C#C[C@]1(O)CC[C@H]2[C@@H]3CCC4=C(CCC(=O)C4)[C@H]3CC[C@@]21C	-9.83 ± 0.4
C=C(C)C(=O)Nc1ccc(NC(C)C)cc1	5.24 ± 6.5
O=C1[C@@H]2CSCN2C(=O)CN1Cc1ccc(F)cc1	-0.473 ± 5.9

SMILES	CD40L-induced NF-kB luciferase activity
COc1cc(C(=O)Nc2ccc(N(C)C)cc2)c([N+](=O)[O-])cc1OC	1.16 ± 2
COc1ccc(-c2nc(NC(C)=O)sc2-c2ccc(OC)cc2)cc1	-0.95 ± 2.8
Cc1nc(NCc2ccco2)c(C#N)c2c1COC(C)(C)C2	-5.81 ± 6
CN(C)C(=O)CCCCCCCCC(=O)N(C)C	-0.277 ± 1.3
O=S(=O)(CCc1nc2ccccc2[nH]1)c1ccc(Cl)cc1	-12.2 ± 1.3
CC(C)Oc1cccc(C(=O)N2CCCC2)c1	-0.9 ± 2.4
CC(C)Cc1ccc(C(C)C(=O)O)cc1 (configuration not stated)	2.3 ± 5
CC(=O)NC(C(=O)NCC(N)=O)C(C)C (configuration not stated)	1.19 ± 2.5
O=C1CN(O)C=C2N=c3ccccc3=C2N1c1ccc([N+](=O)[O-])cc1	0.0767 ± 1.2
COCCc1ccc(OCC(O)CNC(C)C)cc1 (configuration not stated)	-6.81 ± 1.3
CC(C)(C)NCC(O)COc1cccc2c1C[C@H](O)[C@H](O)C2 (some centres not stated)	-5.07 ± 1.9
Cc1cc(C)c2c(CCl)cc(=O)oc2c1	2.87 ± 1.8
Cc1coc2c1c(C)cc1oc(=O)c(Cc3ccccc3)c(C)c12	1.05 ± 2.4
Cc1ccc2nc3c(cc(C(=O)NCC4CCCO4)c(=N)n3CCCOC(C)C)c(=O)n2c1 (configuration not stated)	4.67 ± 4
COc1cc(C(=O)CCN2CCC(c3ccccc3)C2)cc(OC)c1OC (configuration not stated)	-7.8 ± 0.22
Cn1c([N+](=O)[O-])cnc1COC(N)=O	-1.24 ± 5.2
CCC1CCc2c(sc(NC(=O)c3cccnc3)c2C(N)=O)C1 (configuration not stated)	25.2 ± 6.5
Fc1ccccc1CNCCC(Cc1ccccc1)c1ccc2c(c1)OCO2 (configuration not stated)	-0.335 ± 0.92
COc1ccc(C(=O)Nc2ccc(OC)c([N+](=O)[O-])c2)cc1Br	1.1 ± 2.5
Cc1ccccc1-c1coc2cc(O)ccc2c1=O	4.65 ± 2.2
CCOC(=O)C(=Cc1ccccc1OC)C(=O)OCC	-29 ± 6.1
COc1cc(C2Nc3ccccc3NC3=C2C(=O)CC(c2ccc(OC)c(OC)c2)C3)ccc1O (configuration not stated)	0.269 ± 0.21
COC(=O)c1ccc(COc2ccc3c(C)c(C)c(=O)oc3c2C)o1	-0.554 ± 5
COc1ccc(C2C(C(=O)c3ccco3)=C(O)C(=O)N2CC2CCCO2)cc1 (configuration not stated)	2.98 ± 4.2

SMILES	CD40L-induced NF-kB luciferase activity
Cc1cccc(C2=N/C(=C\c3cccnc3)C(=O)O2)c1	-3.64 ± 9.2
Nc1cc(-c2ccncc2)c[nH]c1=O	-8.44 ± 1.2
CCOC(=O)c1cc2c(nc1N)CC(C)(CC)OC2 (configuration not stated)	44.2 ± 5.9
O=C(CN1C(=O)C2CCc3[nH]c4ccccc4c3C2C1=O)N1CCCC1 (configuration not stated)	0.555 ± 7.7
OC(CCN1CCCCC1)(c1ccccc1)C1CCCCC1 (configuration not stated)	1.3 ± 1.7
COc1ccc2c(c1)CC[C@@H]1[C@@H]2CC[C@]2(C)C(=O)CC[C@@H]12	-0.108 ± 2.2
Cc1cccc(Oc2coc3cc(OC(=O)c4cncc(Br)c4)ccc3c2=O)c1	15 ± 3.7
COc1ccc2c(CCNC(=O)c3ccc([N+](=O)[O-])cc3)c[nH]c2c1	-3.48 ± 6.8
CCNC(=O)C(Cc1ccccc1)NC(=O)OCc1ccccc1 (configuration not stated)	4.35 ± 11
O=C1OC(=O)C2C1[C@@H]1CC[C@H]2O1 (some centres not stated)	-3.42 ± 0.2
C=C1C2(C(=O)Nc3ccc(SC(F)F)cc3)CCC(C2)C1(C)C (configuration not stated)	1.47 ± 2.7
CC[N+]1(CC)CC2=Cc3ccccc3CC2C1 (configuration not stated)	-4.39 ± 2.2
COc1ccccc1Oc1c(C)oc2c(CN3CCN(CCO)CC3)c(O)ccc2c1=O	-0.82 ± 6.9
COc1ccc(CNC(=O)C2CCCN2C)cc1OC (configuration not stated)	-2.11 ± 1.2
COc1ccc(OC)c(NC2=C(Cl)C(=O)N(Cc3ccccc3)C2=O)c1	2.94 ± 3.3
OCCOCCN1CCN(C(c2ccccc2)c2ccc(Cl)cc2)CC1 (configuration not stated)	-2.13 ± 1.9
C[C@]12CCC(=O)C[C@@H]1CC[C@@H]1[C@@H]2CC[C@]2(C)C=CC[C@@H]12	0.624 ± 2.1
COc1ccc(CNC(=O)c2cc3c(=O)n4ccccc4nc3n(Cc3cccnc3)c2=N)cc1	4.715 ± 0.016
CCCC(=O)Nc1ccccc1NC(C)=O	7.77 ± 2.6
CC(=NN1CCN(Cc2cccc3ccccc23)CC1)c1cccnc1	0.754 ± 2.2
CCc1cccc2c3c([nH]c12)C(CC)(CC(=O)O)OCC3 (configuration not stated)	3.84 ± 0.98
